Experimental data reported in article PMC12136788.
The other results are listed elsewhere or left out.

B1: 192275893_192278888_3021_CDS_ENSG00000128641_ENST00000304164|human|control|control (ssRNA)
RNA: GGGAGUUCUACAGUCCGACGAUCAAUUUUGUUCACGACUUCAGCAAUGAUGAUCUUUUCUUCAAUGGCAUCUUUGAGUUUCUUAUACUUGGGGUUCUUGUUGAUUUCCAGGUAAGCCCCUUGGAAUGGUUGCCCAACACUAGACAACAGAGGAUUGAGCAUCA
B2: 118575273_118577313_527_CDS_ENSG00000088205_ENST00000263239|human|control|control (ssRNA)
RNA: GGGAGUUCUACAGUCCGACGAUCCUUCUCCACAUUAUUUUCUGUUUCUUUAGUAGUCUCGGCACUUUCUUCUUCAGAUUUCCCUUUGUUUUCAGUUUUUGCUUUUUUCGUAUCAGGCUCAGCAUCAUUCACCAUUUUUCUCUUCAACAGAGGAUUGAGCAUCA
B3: chr1:60041781:60041782:+_ENSMUSG00000041040_ENSMUST00000036540|mus_hu|mus_mus_mus_hu_False|38_38 (ssRNA)
RNA: GGGAGUUCUACAGUCCGACGAUCAAGUUUACAAUAGUAAAGUAAAUGCAGUAGUGGCAAAUUUUCUUUUAUUUUCCUUCACAAAAGAAAAUCUUUAGAUCUCAGUUCUAGUCUUGGACAUAGUGAAAGCUAUAAAUUCUGACUCAACAGAGGAUUGAGCAUCA
B4: chr2:152857951:152857952:+_ENSMUSG00000042631_ENSMUST00000037235|mus_mus|FALSE|FALSE (ssRNA)
RNA: GGGAGUUCUACAGUCCGACGAUCCUGACCCUGCAGGUAGUAGGAGGCCGCCAGCCACAGGUCGGUGGCGCCGUCGGAGAAGAACACGAGCAGCGCGCACAGCACCCAGCAGCAGUCCCGCAGCUCGUAGCGUGGCCCCGGGCACAACAGAGGAUUGAGCAUCA
B5: chr1:109605286:109605287:-_ENSG00000197780_ENST00000461096|hu_mus|hu_hu_hu_mus_True|1_1 (ssRNA)
RNA: GGGAGUUCUACAGUCCGACGAUCAAGUUUCAGAGUAACAUUCAGUAACCUCUUUAAAUGCAAUUAUCCUUAUUAUAAGCUAAGCAGAAUAAUAAUUUAAUACCGUAAGUGAACUACACACAAAGCCUGAACCGCGAAACUACACAACAGAGGAUUGAGCAUCA
B6: 30169689_30169809_76_3pUTR_ENSG00000139514_ENST00000380752|human|control|control (ssRNA)
RNA: GGGAGUUCUACAGUCCGACGAUCGGAGGCUGCGGUUAGCGGGAGCCCGCGGCCGCGUGCGCGCCUGCCAGGUAGUUGACCCGCUGCUCACACCUGCCUGCGCGGACUGAAUGGGCGCCGAGGGCUGGCGGGUUCCGGCGCCAGCAACAGAGGAUUGAGCAUCA
B7: chr8:98817645:98817646:+_ENSG00000104341_ENST00000445593|hu_hu|FALSE|FALSE (ssRNA)
RNA: GGGAGUUCUACAGUCCGACGAUCAAUGCACAUGUUGGCAUCAUCCAUGAACUCAAAGUCACCUCCCAGUUCAGAACUUGAAAAGUUAUACUGAUCCGGAUCAGCCAGGGCACUCAAUAAAAUCAACAGUACCACAGCAUUGAUCAACAGAGGAUUGAGCAUCA
B8: chr17:64801638:64801639:+_ENSG00000154229_ENST00000413366|hu_mus|hu_hu_hu_mus_False|8_68 (ssRNA)
RNA: GGGAGUUCUACAGUCCGACGAUCUAUAUAUAUAUAUACAUAUGUACACAUAUAUAGUAAAACCCUAAUCUAUCACGUAAAGUAGCCAUUCAUUUUUAAAAUUACAUCUACAUUAAAAAAUUAAUAUAUCUGAUACAGUGCCAGCAACAGAGGAUUGAGCAUCA
B9: 14004324_14004444_1713_CDS_ENSMUSG00000024420_ENSMUST00000025288|mouse|control|control (ssRNA)
RNA: GGGAGUUCUACAGUCCGACGAUCGAACGCAUUGCUGUCCUUGGCCGCGGGAUUGGCAAACCCAUGAGAACAUCGGAUGUGCUCCUGAAGGGUGUUGAGGUCAUUGACAACUUCGGAACAGAAGUUGCACUGGUAAACAAUGGCCAACAGAGGAUUGAGCAUCA
B10: chr1:201932794:201932795:+_ENSG00000134375_ENST00000367287|hu_hu|FALSE|FALSE (ssRNA)
RNA: GGGAGUUCUACAGUCCGACGAUCUAAGGCACCACUUGUGAUGGAGUUCCAGGGAUCUUCCUUUCCUCUGACUUGAACCAUACUACAGUCAAUCAUGGAAAACAGCCCUCCCCAAACUGCAAAGCUACCUCCUAACUGUGGAGCCAACAGAGGAUUGAGCAUCA
B11: 192992112_192993039_962_CDS_ENSG00000116750_ENST00000367454|human|control|control (ssRNA)
RNA: GGGAGUUCUACAGUCCGACGAUCUUCUGACUGAAUAGCACUUAACAUACUAUUACCUUGAUCUGUAUCCAUGGGUUCCUCUGCAAGUUGUCUUUGUAACUCUGCUAUCUUCUGCUCAUAUAUCAUUUUUCUGUCAGACACAAUCAACAGAGGAUUGAGCAUCA
B12: 46920667_46922139_661_CDS_ENSMUSG00000021375_ENSMUST00000056978|mouse|control|control (ssRNA)
RNA: GGGAGUUCUACAGUCCGACGAUCCGUUCGAGACUUAUUUCCCUCAGACAUCAGUGACUCAAUGUCCUCAAAGCUGGUGACAGCCAGCUGAGACAGACCAUCGACAUACGGCCCCAGGACCUUAUGCUCUCGGACUUUCAGAGACAACAGAGGAUUGAGCAUCA
B13: chr2:232320318:232320319:-_ENSG00000115053_ENST00000322723|hu_hu|hu_hu_hu_mus_True|78_108 (ssRNA)
RNA: GGGAGUUCUACAGUCCGACGAUCACUGUUGAAGUCUACAAAACCAAACCCUUUGGAGGACCCAGUUUCCCGAUCAGUGACUAUUCUUGCACGAACAGAGCCCUCAAAUGAUUCUUUUAAGGUCUCUUCAGUGGUAUCCUCAGACAACAGAGGAUUGAGCAUCA
B14: chr7:141445308:141445309:+_ENSG00000106028_ENST00000265304|hu_hu|hu_hu_hu_mus_False|8_38 (ssRNA)
RNA: GGGAGUUCUACAGUCCGACGAUCUAUGAUUGUUGUUGCUUGCCGCCUCACAUUGUUUUUAUCCAUGUACUCGCCAUAGUCCACUUUCCCUUCCACAUAAAUUCGAGCCCCCUUUUUCACAUACUGAUAUGCCACGUCUCUGAGCAACAGAGGAUUGAGCAUCA

target: T1, UNK ZnF1-3 (human, UniProt Q9C0B0 31-174); assay: nsRBNS (natural sequence RNA bind-n-seq); RBNS binding buffer (assumed for nsRBNS): 25 mM Tris pH 7.5, 150 mM KCl, 3 mM MgCl2, 0.01% Triton X-100, 500 ug/ml BSA, 20 U/ml SUPERase-In, 4 C; UNK is unkempt and MSI1 is Musashi-1; names of the RNAs are library labels; protein concentration not given here; high values mean tight binding
T1 sequence: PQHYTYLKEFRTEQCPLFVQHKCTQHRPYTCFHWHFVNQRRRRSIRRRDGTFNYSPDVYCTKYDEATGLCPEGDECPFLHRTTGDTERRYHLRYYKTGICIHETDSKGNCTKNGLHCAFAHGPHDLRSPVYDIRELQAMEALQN

First: B1
Second: B2
The binding signal of the first is higher: 0.426 enrichment R for the first, 0.176 enrichment R for the second.

Compared with B3, B4 is higher in binding signal: 0.517 enrichment R for the first, 1.12 enrichment R for the second.

Going from B5 to B6, the binding signal falls from 0.711 enrichment R to 0.389 enrichment R.

First: B7
Second: B8
The binding signal of the first is higher: 1.76 enrichment R for the first, 1.36 enrichment R for the second.

Going from B9 to B10, the binding signal rises from 1.08 enrichment R to 1.33 enrichment R.

Compared with B11, B12 is lower in binding signal: 0.589 enrichment R for the first, 0.584 enrichment R for the second.

First: B13
Second: B14
The binding signal of the first is lower: 0.481 enrichment R for the first, 0.578 enrichment R for the second.
